The subject of test [1] is DENV2. Briefly: DENV2 replication in infected cells, qPCR of DENV genes. Conditions: HUVECs and A549 cells, DENV2 at 1 MOI for 24 h (legend: MOI 0.5), qPCR relative to human Hprt; three independent experiments. In kind it is cell-based, dengue serotype-2 virus (DENV2).
For test [2], the system named is recombinant DENV2 NS2B–NS3 protease. Briefly: Real-time fluorescence-based protease inhibition assay, DENV2 NS2B–NS3 protease. Format: biochemical, dengue serotype-2 virus (DENV2). Conditions: real-time detection, RFU, excitation 360 nm, emission 460 nm.

SMILES strings stand for the structures. Where a name gives a salt, the structure may show the parent alone.

As to `CC(C)C[C@H]1C(=O)N2CCC[C@H]2[C@]2(O)O[C@](NC(=O)[C@@H]3C=C4c5cccc6[nH]c(Br)c(c56)C[C@H]4N(C)C3)(C(C)C)C(=O)N12` [bromocriptine, Bromocriptine mesylate], the “replication of DENV2 (in words)” value in test [1] is “also inhibits the DENV2 NS2B–NS3 protease and its replication”. Moreover, in test [2], the “inhibition of the DENV2 NS2B–NS3 protease (in words)” value is on record as “also inhibits the DENV2 NS2B–NS3 protease”.

(Values after paper PMC6832551, “An Antiviral Peptide from Alopecosa nagpag Spider Targets NS2B–NS3 Protease of Flaviviruses” (Toxins, 2019).)
